The values that follow come from article PMC12040169 (PLOS Biology, 2025).

Structures are written as SMILES. Some of the results follow.

This assay concerns T1, C. trachomatis L2/434/Bu expressing GFP (CTL2-GFP).
T1 construct: L2/434/Bu GFP intracellular growth in HeLa cells
Also on record: species or system HeLa; C. trachomatis total inclusion area by high-content imaging, normalised to DMSO. To be noted: total inclusion area; 28.5 h, 10 µM; inhibitor. A digest of the protocol: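 Post-fluorescence-read fixation, DNA staining with Hoechst and high-content imaging; GFP inclusion area and number per well, and nuclei counts, used as proxies for bacterial growth and host viability.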
`COc1ccc(C(C)=O)cc1Cc1c(O)nc(SC)nc1O` [CBK262699]: the “% of control remaining” value is 107.193.

Turning to `CCc1nc2c(OCc3ccccc3)cccn2c1N(C)C(=O)c1ccncc1` [CBK147876], the “% of control remaining” value was determined as 97.5986.

Take `CC1(C)CC(CN)(c2ccccc2)CCO1` (centres unmarked) [CBK025559C]: the “% of control remaining” value was 109.55.

For `O=C(CSc1nnc(Cc2cccc3ccccc23)n1-c1ccccc1)N1CCc2ccccc21` [CBK266697], the “% of control remaining” value was 108.659.

For the molecule `CCN(CC)C(=O)c1ccc(NS(=O)(=O)c2cccc(Cl)c2C)cc1` [CBK034393], the “% of control remaining” value is 95.5794.

With `CC(=O)Nc1ccc(-c2cccc(COC3CCN(C(=O)Cc4cc(F)cc(F)c4F)CC3)c2)cc1` [CBK149489], the “% of control remaining” value is 84.9768.

Turning to `COc1ccc(Cl)cc1N1CCN(CCN2CCCCC2)CC1` [CBK126445], the “% of control remaining” value worked out at 101.204.

For the molecule `Cc1c(C#N)c(=O)ncn1Cc1ccncc1` [CBK021603], the “% of control remaining” value came out at 100.31.

As for `CCn1c(CN[C@@H]2CCC[C@H]2Cc2cc(C)no2)cnc1SC` [CBK282965], the “% of control remaining” value amounted to 119.428.

`OC1(c2cccnc2F)CCN(Cc2cc(F)ccc2F)CC1` [CBK284371]: the “% of control remaining” value is given as 79.9527.

Take `O=C(c1cn2ccccc2n1)N1CCCN(Cc2cscn2)CC1` [CBK305352]: the “% of control remaining” value is 100.108.

For `CCCc1ccc(C(=O)N2CCC(C(=O)c3cccnc3)CC2)o1` [CBK285482], the “% of control remaining” value is given as 81.0937.

As to `COc1cc2c(cc1OC)C1(CCN(C(=O)Nc3ccc(F)cc3F)CC1)NC(=O)C2` [CBK047264], the “% of control remaining” value was 90.7737.

For the molecule `COc1ccc(OC(C)C(=O)Nc2cc(OC)c(Cl)cc2OC)cc1` (centres unmarked) [CBK263627], the “% of control remaining” value was 75.9234.

As for `CC(C)(C)c1cc(C(=O)NCC2CCCN2)n(Cc2ccc(Cl)cc2Cl)n1` (centres unmarked) [CBK115920C], the “% of control remaining” value was 41.987.

Take `CNCc1ccccc1Sc1cccc(OC)c1` [CBK026207C]: the “% of control remaining” value was determined as 86.8788.

Take `COc1ccccc1-c1nccnc1NCc1ccccn1` [CBK036894]: the “% of control remaining” value amounted to 103.964.

Regarding `CN1CCCN(c2cncc(-c3ccc4c(c3)OCO4)n2)CC1` [CBK065978], the “% of control remaining” value was 118.205.

For the molecule `COc1ccc(C)cc1-n1ccc(C(=O)NC2CCSCC2)n1` [CBK305502], the “% of control remaining” value is given as 38.2851.

Take `COc1ccccc1-c1ccc2c(c1)COC1(CCN(C)CC1)O2` [CBK061024]: the “% of control remaining” value came out at 102.489.

On to `CCOC(=O)c1sc(NC(=O)CCNC(=O)c2ccccc2C(=O)O)c(C#N)c1C` [CBK295152], for which the “% of control remaining” value was 84.653.

On to `CCCCN(C)c1c(CC)nc2ccc(C(=O)Nc3ccc(OC)c(OC)c3)cn12` [CBK145445], for which the “% of control remaining” value amounted to 102.758.

Take `COc1cc(/C=C2\N=C(c3cccs3)OC2=O)ccc1OCc1ccc(Cl)cc1` [CBK263176]: the “% of control remaining” value was 101.841.

For the molecule `c1ccc(-c2nc(-c3ccncc3)[nH]c2-c2ccccc2)cc1` [CBK291155], the “% of control remaining” value is recorded as 72.0231.

For `Cc1ccc(C(=O)O)cc1NC(=O)C(=O)NCC(c1ccccc1)N(C)C` (centres unmarked) [CBK286777], the “% of control remaining” value came out at 95.7112.

Regarding `C=CCOc1cccc(CNc2nn[nH]n2)c1` [CBK267618], the “% of control remaining” value is reported as 85.7781.

Turning to `CC(C)C(=O)N1CCC[C@@H]2NC(=O)c3ccccc3OCC/C=C/C[C@@H]21` [CBK292064], the “% of control remaining” value amounted to 101.186.

Consider `Cc1cc(C)n2c(SCC(=O)O)nnc2n1` [CBK027406], for which the “% of control remaining” value is 71.9368.

As to `CN(C)c1cccc(-c2cncc(NCc3ccco3)n2)c1` [CBK065555], the “% of control remaining” value came to 112.245.

In the case of `COc1ccc(/N=C(/Nc2cccc(C(F)(F)F)c2)SC)cc1` [CBK018896I], the “% of control remaining” value was 89.4898.

For the molecule `COc1ccc(-c2nnc(SCC(=O)Nc3cc(C(C)(C)C)no3)n2C2CCCCC2)cc1OC` [CBK295131], the “% of control remaining” value worked out at 98.4882.

Regarding `Cc1n[nH]c(O)c1C(c1ccc(Br)o1)c1c(C)n[nH]c1O` [CBK026150], the “% of control remaining” value was found to be 89.2275.

Turning to `CN1CCN(CC(CC(=O)Nc2ccccc2)C(=O)O)CC1` (centres unmarked) [CBK286746], the “% of control remaining” value amounted to 77.0544.

In the case of `O=C(Nc1nc2ccccc2[nH]1)NC1CCCCC1` [CBK288210], the “% of control remaining” value was found to be 78.2406.

Turning to `COc1cccc(-c2cc(C(=O)N3CCC(C)CC3)n[nH]2)c1` [CBK288109], the “% of control remaining” value came to 92.0415.

As to `CN(C)CCCNC(=O)c1cc2cc(Cl)cc(Cl)c2oc1=O` [CBK269132C], the “% of control remaining” value was found to be 93.078.

For the molecule `O=C(NCc1ccc(Cl)c(Cl)c1)c1cncc(-c2ccc(C(=O)N3CCOCC3)cc2)c1` [CBK158612], the “% of control remaining” value was found to be 60.5666.

On to `COc1ccc(CN2C(=S)N(c3ccccc3)[C@H]3[C@@H]2[C@H]2OC(=O)[C@@H]3C[C@H]2O)cc1` [CBK288937], for which the “% of control remaining” value was determined as 93.9839.

`COc1ccccc1-c1ccc(CC2(C(=O)NCc3ccc(F)cc3)CCOCC2)cc1` [CBK286518]: the “% of control remaining” value was found to be 91.9072.

With `Cc1cc(CSc2cccc(F)c2)no1` [CBK002916], the “% of control remaining” value is reported as 91.1372.

`CCN(Cc1cccnc1)C(CC1CCCCC1)c1ccccc1` (centres unmarked) [CBK061673]: the “% of control remaining” value is 83.8652.

Consider `O=C(CC1(O)C(=O)Nc2ccccc21)CC1(O)C(=O)Nc2ccccc21` (centres unmarked) [CBK263705], for which the “% of control remaining” value was 123.98.

In the case of `CC(Cc1cccs1)NC(=O)c1cc2c([nH]c1=O)CCCCC2` (centres unmarked) [CBK282523], the “% of control remaining” value is 76.3172.

On to `Cc1cc(C)c2c(OCC(=O)Nc3nc(C(N)=O)cs3)nn(C)c2n1` [CBK305530], for which the “% of control remaining” value is recorded as 40.8164.

For `COCCn1c(SCc2cn3cc(Br)ccc3n2)nc(C)c1C` [CBK305704], the “% of control remaining” value is reported as 69.8863.

For `COc1ccc(Cl)cc1NC(=O)CCCn1cnc([N+](=O)[O-])n1` [CBK268882], the “% of control remaining” value was found to be 105.346.

As for `CC(C)[C@@H](Cn1nnc2ccccc21)NC(=O)c1ccco1` [CBK282335], the “% of control remaining” value was 90.4575.

`CCn1cc(C2CN(S(=O)(=O)c3ccccc3OC(F)F)CCO2)cn1` (centres unmarked) [CBK304234]: the “% of control remaining” value was found to be 49.5086.

In the case of `CCc1cc2c3c(c(=O)oc2cc1OCc1cc(C(=O)O)oc1C)CCCC3` [CBK264402], the “% of control remaining” value amounted to 120.68.

Take `COc1ccc(N2C(=O)CC(N3CCN(c4ccc(C(=O)c5cccnc5)cc4)CC3)C2=O)cc1` (centres unmarked) [CBK268924]: the “% of control remaining” value stood at 120.618.

For the molecule `O=C(N/N=C/c1ccccn1)c1n[nH]c2c1CCCC2` [CBK262882], the “% of control remaining” value turned out to be 102.118.

With `O=C(c1ccccc1)c1ccc2n1CCC2C(=O)N1CCN(c2ccccc2)CC1` (centres unmarked) [CBK300536], the “% of control remaining” value is 102.922.

Turning to `OCCCNC(c1ccccc1)c1ccc(O)cc1` (centres unmarked) [CBK266329], the “% of control remaining” value stood at 119.545.

Regarding `COc1ccc(C)cc1S(=O)(=O)n1ccc2c(CNC3CC(C)(C)NC(C)(C)C3)cccc21` [CBK113311T], the “% of control remaining” value is 92.3824.

In the case of `O=C(Nc1ccc2oc(-c3cccnc3)nc2c1)c1sc2cc(Cl)ccc2c1Cl` [CBK267876], the “% of control remaining” value is 110.947.

Take `Cc1ccc2c(c1)CC(=O)NC21CCN(Cc2cccc(Br)c2)CC1` [CBK039392]: the “% of control remaining” value was determined as 94.2306.

Consider `NC(=O)c1sc2cc(C(F)(F)F)cnc2c1-c1cccs1` [CBK089891], for which the “% of control remaining” value was 75.3165.

In the case of `CCN(CC)S(=O)(=O)c1ccc(C(=O)NCc2ccc(OC)cc2)cc1` [CBK305844], the “% of control remaining” value worked out at 29.5292.

Turning to `OC(CNCc1ccc2c(c1)OCO2)COc1ccc(SC(F)(F)F)cc1` (centres unmarked) [CBK074691], the “% of control remaining” value is 95.6566.

For the molecule `CCCCOc1ccc(NC(=O)Nc2cc3cccnc3c(Br)n2)cc1` [CBK063291], the “% of control remaining” value came to 49.4388.

Turning to `CCOC(=O)CN1CCC(Oc2nccnc2OCc2cc(C)on2)CC1` [CBK082960T], the “% of control remaining” value is on record as 134.67.

Regarding `Cc1ccc(C(=O)C2CCN(S(=O)(=O)c3ccc(Cl)c(Cl)c3)CC2)cc1` [CBK019294], the “% of control remaining” value is recorded as 90.4865.

Take `CC1(C)[C@H](Cc2cc(CO)on2)C[C@@H]1N(Cc1ccncc1)Cc1ccncc1` [CBK289233]: the “% of control remaining” value is on record as 113.965.

Turning to `CS(=O)(=O)NC1CCN(C2CCc3c(F)cc(F)cc32)C1` (centres unmarked) [CBK305101], the “% of control remaining” value worked out at 78.1441.

As to `CCCC(=O)Nc1ccc(C(=O)N2CCN(C)CC2)cc1` [CBK304337], the “% of control remaining” value was found to be 100.274.

`COC(=O)c1ccc(/C=N/NC(=O)CCc2c(C)n[nH]c2C)cc1` [CBK262904]: the “% of control remaining” value was 71.1492.

With `CCOc1ccc(Cl)cc1CNc1nnnn1CC` [CBK288128], the “% of control remaining” value is 87.4896.

In the case of `CCCC(=O)N1CCC(c2nc(C3CCCC3)no2)C1` (centres unmarked) [CBK285457], the “% of control remaining” value amounted to 85.8624.

Turning to `O=C(Nc1ccc(N2CCCCC2)c(F)c1)C1CC(=O)N(C2CC2)C1` (centres unmarked) [CBK281387], the “% of control remaining” value was found to be 82.486.

Consider `O=C([C@@H]1Cc2[nH]cnc2CN1Cc1cc2ccccc2o1)N1CCOCC1` [CBK288977], for which the “% of control remaining” value is listed as 126.864.

Take `Cc1oc(C(=O)Nc2ccc(C(=O)O)cc2)cc1COc1ccccc1` [CBK263273]: the “% of control remaining” value is on record as 92.8918.

On to `CCN(CC)C(=O)C1CCCN(C(=O)NCc2cnc(C)cn2)C1` (centres unmarked) [CBK156122], for which the “% of control remaining” value was 90.0565.

With `N#Cc1nc(-c2ccco2)oc1N1CCN(C(=O)c2cc3c(s2)CCCCC3)CC1` [CBK240763], the “% of control remaining” value is recorded as 62.791.

Regarding `CC(=O)N(C)c1nc(-c2cccc(N(C)C)c2)ccc1C(=O)NC1CCS(=O)(=O)C1` (centres unmarked) [CBK076590], the “% of control remaining” value was determined as 88.0359.

As to `CCn1c(=O)oc2cc(NC(=O)NCCCc3csc(N)n3)ccc21` [CBK307633], the “% of control remaining” value was 56.8752.

`O=C(N/N=C/c1c[nH]c2ccccc12)c1cc(-c2ccc3ccccc3c2)n[nH]1` [CBK262885]: the “% of control remaining” value was found to be 10.5096.

`Cc1cccnc1C(NC(=O)C1CCN(CCOc2ccccc2)CC1)c1ccc(F)cc1` (centres unmarked) [CBK147892]: the “% of control remaining” value was found to be 102.716.

As for `c1ccc(CCCN2CCN(C3CCN(Cc4ccccc4)CC3)CC2)cc1` [CBK263457], the “% of control remaining” value worked out at 89.0261.

`O=C1N=C(NC2CC3CCC2C3)SC12CCC2` (centres unmarked) [CBK073933]: the “% of control remaining” value turned out to be 139.338.

Consider `COc1cccc(NC(=O)CN(c2cccc(C(C)=O)c2)S(C)(=O)=O)c1` [CBK267502], for which the “% of control remaining” value was 107.326.
